Measured values: the RNAGym collection of RNA variant scans (doi:10.1073/pnas.2313332121)
Variants at the background level are over-represented here.

B1: TPR 5TU (parent)
chain: GGAUCUUCUCGAUCUAACAAAAAAGACAAAUCUGCCACAAAGCUUGAGAGCAUCUUCGGAUGCAGAGGCGGCAGCCUUCGGUGGCGCGAUAGCGCCAACGUUCUCAACUAUGACACGCAAAACGCGUGCUCCGUUGAAUGGAGUUUAUCAUG

Variants of: B1
Test: polymerase ribozyme fitness, log enrichment relative to wild type (log ratio); higher = more active; in vitro selection for triplet polymerase activity
Summary of the method: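 After PCR construction and transcription, each subunit's mutant library from a heterodimeric triplet polymerase ribozyme was annealed with a biotinylated primer, the partner subunit and triplets. Incubation was frozen, at −7 °C, and extended constructs were gel-excised, bound to streptavidin beads and amplified by RT-PCR, in one selection round done in triplicate. Fitness is the logarithm of a genotype's enrichment divided by that of the wild type, from inverse-variance-weighted replicate averages of Illumina-sequenced inputs and outputs. The base of the logarithm is 2, and genotypes needed ≥10 input reads and ≥1 read per output.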

| Variant | polymerase ribozyme fitness (log ratio) |
| --- | --- |
| GGAUCUUCUCGAUCUAAGAAAAAAGACAAAUCUGCCACAAAGCUUGAGAGCAUUUUCGGAUGCAGAGGCGGCAGCCUUCGGUAGCGCGAUAGGGCCAACGUUCUCAACUAUGACACGCAAAACGCGUGCUCCGUUGAAUGGAGUUUAUCAUU [C18G C54U G83A C93G G152U] | ≤ -4.2 |
| GGAUCUUCUCGAUCUAAGAAAAAAGACAAAUCUGCCACAAAGCUUGAGAGCAUUUUCGGAUGCAGAGGCGGCAGCCUCCGGUGGCGCGAUAGCGCCAACGUUCUCAACUAUGACACGCAAAACGCGUGCUCCGUUGAAUGGAGUUUAUCAUG [C18G C54U U78C] | -2.12 |
| GGAUCUUCUCGAUCUAAGAAAAAAGACAAAUCUGCCACAAAGCUUGAGAGCAUCUUCGGAUGCAGAGGCGGCAGCGUUCGGUGGAGCGAUAGCGCCAACGUUCUCAACUAUGACACGCAAAACGCGUGCUCCGUUGAAUGGAGUAUAUCAUG [C18G C76G C85A U145A] | ≤ -4.2 |
| GGAUCUUCUCGAUCUAAGAAAAAAGACAAAUCUGCCACAAAGCUUGAGAGCAUCUUCGGAUGCAGAGGCGGCAGCCUUCGGUGGUGCGAUAGCGCCAACGCUCUCAACUAUGACACGCAAAACGCGUGCUCCGUUGAAUGGAGUUUAUCAUG [C18G C85U U101C] | -0.76 |
| GGAUCUUCUCGAUCUAAGAAAAAAGACAAAUCUGCCACAAAGCUUGAGAGCAUCUUCGGAUGCAGAGGCGGCAGCCUUCGGUGGCGAGAUAGCGCCAACGUUCUCAACUAUGACACGCAAAGCGCGUGCUCCAUUGAAUGGAGUUUAUCAUG [C18G C87A A122G G133A] | ≤ -4.2 |
| GGAUCUUCUCGAUCUAAGAAAAAAGACAAAUCUACGACAAAGCUUGAGAGCAUCUUCGGAUGCAGAGGCGGCAGCCUUCGGUGGCGCGAUACCGCAAACGUUCUCAACUAUGACACGCAAUACGCGUGCUACGUUGAAUGGAGUUUAUCAUG [C18G G34A C36G G92C C96A A121U C131A] | ≤ -4.2 |
| GGAUCUUCUCGAUCUAAGAAAAAAGACAAAUCUGCCACAAAGCUUGAGAGCAUCUUCGAAUGCAGAGGCGGCAGUCUUCGGUGGCGCGACAGAGCCAACGUCCUUAACUAUGACACGCAAAACGCGUGCUCCGUUGAAUGGAGUUUAUGAUG [C18G G59A C75U U90C C93A U102C C105U C149G] | ≤ -4.2 |
| GGAUCUUCUCGAUCUAAGAAAAAAGACAAAUCUGCCACAAAGCUUGAGAGCAUCUUCGGAUGCAGAGGCGCCAGCAUUCGGUGGCGCAAUAGCACCAACGUUCUCAACUAUGGCACGCUAAACGCGUGUUCCGUUGAAUGGAGUUUAUCAUG [C18G G71C C76A G88A G94A A113G A119U C129U] | ≤ -4.2 |
| GGAUCUUCUCGAUCUAAGAAAAAAGACAAAUCUGCCACAAAGCUUGAGAGCAUCUUCGGAUGCAGAGGCGGCAGCCUUCGAUGGCGCGAUAGCUCAAACGUUCCCAACUAUGACACGCAAAACGCGUGCUCCGUUGAAUGGAUUUUAACCUG [C18G G81A G94U C96A U104C G143U U148A A150C] | ≤ -4.2 |
| GGAUCUUCUCGAUCUAAGAAAAAAGACAAAUCUGCCACAAAGCUUGAGAGCAUCUUCGGAUGCAGAGGCGGCAGCCUUCGGUAGCGCGAUAGCGCCAACGUUCUCAACUAUGACACGCAAAACGCGUGCUCCGUUGAAUGGAGUGUAUCAGG [C18G G83A U145G U151G] | ≤ -4.2 |
| GGAUCUUCUCGAUCUAAGAAAAAAGACAAAUCUGCCACAAAGCUUGAGAGCAUCUUCGGAUGCAGAGGCGGCAGCCUUCGGUCGUGCGAUAGCGCGAACGUUCUCAACUAUGACCGGCAAAACGCGUGCUCCGAUGAAUGGAGUUUAUCAUG [C18G G83C C85U C96G A115C C116G U134A] | ≤ -4.2 |
| GGAUCUUCUCGAUCUAAGAAAAAAGACAAAUCUGCCACAAAGCUUGAGAGCAUCUUCGGAUGCAGAGGCGGCAGCCUUCGGUGCCACGAUAGCGCCAACGUUCUCAACUAUGACACGCAAAACGCGUGCUCCGUUGGGUGGAGUUUAUCAGG [C18G G84C G86A A137G A138G U151G] | ≤ -4.2 |
| GGAUCUUCUCGAUCUAAGAAAAAAGACAAAUCUGCCACAAAGCUUGAGAGCAUCUUCGGAUGCAGAGGCGGCAGCCUUCGGUGGCGCGAUAUCGCCAACGUUCUCAACUAUGACACGCAAAACGCGUGCGCCGUUGAAUGGAGUUUAUCAUG [C18G G92U U130G] | -4.01 |
| GGAUCUUCUCGAUCUAAGAAAAAAGACAAAUCUGCCACAAAGCAUGAGAGCAUCUUCGGAUGCAGAGGCGGCAGCCUUCGGUGGCGCGAUAGCGCGAACGUUCUCAACUAUGACACGCAAAACGCGUGCUCCAUUGUAUGGAGUUUAUCAUG [C18G U44A C96G G133A A137U] | -4.04 |
| GGAUCUUCUCGAUCUAAGAAAAAAGACAAAUCUGCCACAAAGCGUGAGAGCAUCUUCGGAUGCAGAGGCGGCAGCCUUCGGUGGCGUGAUAGCGCAAACGUUCUCGACUAUGACACGCAAAACGCGUGCUCCGUUGAAUGGAGUUUAUCAUG [C18G U44G C87U C96A A106G] | ≤ -4.2 |
| GGAUCUUCUCGAUCUAAGAAAAAAGACAAAUCUGCCACAAAGCUCGAGAGCAUCUUCGGAUGCAGAGGCGGCAGCCUUCGGUGGCGCGAUAGCGCUAACGUUCUCAACUAUGACAAGCAAAACGCGUGCCCCGUUGAAUGGAGUUUAUCAUG [C18G U45C C96U C116A U130C] | ≤ -4.2 |
| GGAUCUUCUCGAUCUAAGAAAAAAGACAAAUCUGCCACAAAGCUUGAGAGCAACUUUGCAAGCAGAGGCGGCAGCCUUCGGUGGCGCGAUAGCGGCAACGUUCUCAACUAUGACACGCAAAACGCGUGCUCCGUUGAAUGGAGUUUAUCAUG [C18G U53A C57U G59C U61A C95G] | -3.99 |
| GGAUCUUCUCGAUCUAAGAAAAAAGACAAAUCUGCCACAAAGCUUGAGAGCAUCUUCGGAAGCAGAGGCGGCAGCCUUCGGUGGCGCGAUAGCGCCAACGUUCUCAACUAUGACACGCAAAACGCGUGCUCCGUUGAAUGGAGUUUAUCAUG [C18G U61A] | -0.567 |
| GGAUCUUCUCGAUCUAAGAAAAAAGACAAAUCUGCCACAAAGCUUGAGAGCAUCUUCGGAUGCAGAGGCGGCAGCCUACGGUAGCGCGAUAGCGCCAACGUUCUCAACUAUGACACGUAAAACGCGUGCUCCGUUGAAUGGAGUUUAUCAUG [C18G U78A G83A C118U] | ≤ -4.2 |
